# Assay results published in the supplement of paper PMC10037445.
# Whole data set: some 2,900 compounds, median “IRF Lucia reporter activity, fold change vs agonist alone” near 0.9, cut for the highest 2% near 2.8. The list shows a part of the results.
# What was measured:
# RAW-Dual [1] = assay: IRF Lucia reporter activity, fold change vs agonist alone; cytotoxicity flag (confluency mask): not cytotoxic; higher = enhanced IRF activity
# Outline: (§1)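 Library stock was pin-tooled at 50 nL into 384-well plates of RAW-Dual macrophages (50,000 cells/well, DMEM), followed 1 h later by a PRR agonist, and the cells were kept at 37 °C, 5% CO2. Supernatant collected after 20 hours was read for IRF by QuantiLuc luminescence and for NF-κB by QuantiBlue absorbance at 620 nm. Reporter activity is fold change over agonist-alone wells, and a well counted as cytotoxic when its IncuCyte confluency was below 70% of agonist controls in both mask sets.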
# RAW-Dual [2] = assay: IRF Lucia reporter activity, fold change vs agonist alone; higher = enhanced IRF activity; conditions: library stock concentration (final ~1000-fold dilution): 10 mM, agonist: MPLA (TLR4) […]
# Outline: as §1
# RAW-Dual [3] = assay: IRF Lucia reporter activity, fold change vs agonist alone; cytotoxicity flag (confluency mask): cytotoxic (confluency <70% of control); higher = enhanced IRF activity
# Outline: as §1
# [4] = agonist: 3'3'-cGAMP (STING) 10 ug/mL
# [5] = cytotoxicity flag (confluency mask): not cytotoxic
smiles,measurement,setting,value
Cc1ccc([N+](=O)[O-])cc1S(=O)(=O)N(C)C (library stock concentration (final ~1000-fold dilution): 10 mM),IRF Lucia reporter activity,RAW-Dual [1]; [4],1.11
same,IRF Lucia reporter activity,RAW-Dual [1]; agonist: LPS (TLR4) 0.1 ug/mL,1.17
NC(=O)c1ccccn1,IRF Lucia reporter activity,RAW-Dual [2]; [5],1.02
NC(=O)c1ccccn1 (library stock concentration (final ~1000-fold dilution): 10 mM),IRF Lucia reporter activity,RAW-Dual [1]; [4],1.01
same,IRF Lucia reporter activity,RAW-Dual [1]; agonist: LPS (TLR4) 0.1 ug/mL,1.45
COc1cccc(-c2c(C)n(Cc3c(F)cccc3C(F)(F)F)c(=O)n(CC(NCCCC(=O)O)c3ccccc3)c2=O)c1F (stereo unspecified),IRF Lucia reporter activity,RAW-Dual [2]; [5],1
COc1cccc(-c2c(C)n(Cc3c(F)cccc3C(F)(F)F)c(=O)n(CC(NCCCC(=O)O)c3ccccc3)c2=O)c1F (stereo unspecified) (library stock concentration (final ~1000-fold dilution): 10 mM),IRF Lucia reporter activity,RAW-Dual [1]; [4],1.02
same,IRF Lucia reporter activity,RAW-Dual [1]; agonist: LPS (TLR4) 0.1 ug/mL,0.714
Cl.N=C1CCCN1Cc1[nH]c(=O)[nH]c(=O)c1Cl (library stock concentration (final ~1000-fold dilution): 10 mM),IRF Lucia reporter activity,RAW-Dual [1]; [4],1.08
same,IRF Lucia reporter activity,RAW-Dual [1]; agonist: LPS (TLR4) 0.1 ug/mL,1.24
Cl.N=C1CCCN1Cc1[nH]c(=O)[nH]c(=O)c1Cl,IRF Lucia reporter activity,RAW-Dual [2]; [5],1.11
COc1ccccc1N1CCN(CCN(C(=O)C2CCCCC2)c2ccccn2)CC1.O=C(O)/C=C\C(=O)O,IRF Lucia reporter activity,RAW-Dual [2]; [5],0.961
COc1ccccc1N1CCN(CCN(C(=O)C2CCCCC2)c2ccccn2)CC1.O=C(O)/C=C\C(=O)O (library stock concentration (final ~1000-fold dilution): 10 mM),IRF Lucia reporter activity,RAW-Dual [1]; [4],1.06
same,IRF Lucia reporter activity,RAW-Dual [1]; agonist: LPS (TLR4) 0.1 ug/mL,0.996
COc1ccc(F)c(F)c1C(=O)c1cnc(NC2CCN(S(C)(=O)=O)CC2)nc1N,IRF Lucia reporter activity,RAW-Dual [2]; [5],1.07
COc1ccc(F)c(F)c1C(=O)c1cnc(NC2CCN(S(C)(=O)=O)CC2)nc1N (library stock concentration (final ~1000-fold dilution): 10 mM),IRF Lucia reporter activity,RAW-Dual [1]; [4],1
same,IRF Lucia reporter activity,RAW-Dual [1]; agonist: LPS (TLR4) 0.1 ug/mL,0.0195
C=CC(=O)Nc1cc(Nc2nccc(-c3cn(C4CC4)c4ccccc34)n2)c(OC)cc1N(C)CCN(C)C (library stock concentration (final ~1000-fold dilution): 10 mM),IRF Lucia reporter activity,RAW-Dual [3]; [4],0.0197
same,IRF Lucia reporter activity,RAW-Dual [3]; agonist: LPS (TLR4) 0.1 ug/mL,0.0818
Cc1ccc(C(C)C)cc1O (library stock concentration (final ~1000-fold dilution): 10 mM),IRF Lucia reporter activity,RAW-Dual [1]; [4],1.18
same,IRF Lucia reporter activity,RAW-Dual [1]; agonist: LPS (TLR4) 0.1 ug/mL,1.08
Cc1ccc(C(C)C)cc1O,IRF Lucia reporter activity,RAW-Dual [2]; [5],1.26
Cc1cc[nH]n1,IRF Lucia reporter activity,RAW-Dual [2]; [5],1.02
Cc1cc[nH]n1 (library stock concentration (final ~1000-fold dilution): 10 mM),IRF Lucia reporter activity,RAW-Dual [1]; [4],1.02
same,IRF Lucia reporter activity,RAW-Dual [1]; agonist: LPS (TLR4) 0.1 ug/mL,1.39
COc1ccc(-c2ccc3ncc4c(c3c2)n(-c2ccc(N3CCNCC3)c(C(F)(F)F)c2)c(=O)n4C)cn1.O=C(O)/C=C\C(=O)O (library stock concentration (final ~1000-fold dilution): 10 mM),IRF Lucia reporter activity,RAW-Dual [3]; [4],0.0168
same,IRF Lucia reporter activity,RAW-Dual [3]; agonist: LPS (TLR4) 0.1 ug/mL,0.0224
COc1ccc(-c2ccc3ncc4c(c3c2)n(-c2ccc(N3CCNCC3)c(C(F)(F)F)c2)c(=O)n4C)cn1.O=C(O)/C=C\C(=O)O,IRF Lucia reporter activity,RAW-Dual [2]; cytotoxicity flag (confluency mask): cytotoxic (confluency <70% of control),0.0296
Cl.O=C1CN2Cc3c(ccc(Cl)c3Cl)NC2=N1 (library stock concentration (final ~1000-fold dilution): 10 mM),IRF Lucia reporter activity,RAW-Dual [1]; [4],1.05
same,IRF Lucia reporter activity,RAW-Dual [1]; agonist: LPS (TLR4) 0.1 ug/mL,1.04
Cl.O=C1CN2Cc3c(ccc(Cl)c3Cl)NC2=N1,IRF Lucia reporter activity,RAW-Dual [2]; [5],1.08
COc1ncc(-c2cc(-c3ncc(CN4CC(C)OC(C)C4)o3)c3cn[nH]c3c2)cc1NS(C)(=O)=O (stereo unspecified) (library stock concentration (final ~1000-fold dilution): 10 mM),IRF Lucia reporter activity,RAW-Dual [3]; [4],0.865
same,IRF Lucia reporter activity,RAW-Dual [3]; agonist: LPS (TLR4) 0.1 ug/mL,4.5
Cc1cc(-c2ccccc2)nnc1NCCN1CCOCC1.Cl.Cl (library stock concentration (final ~1000-fold dilution): 10 mM),IRF Lucia reporter activity,RAW-Dual [1]; [4],1.02
same,IRF Lucia reporter activity,RAW-Dual [1]; agonist: LPS (TLR4) 0.1 ug/mL,1.04
Cc1cc(-c2ccccc2)nnc1NCCN1CCOCC1.Cl.Cl,IRF Lucia reporter activity,RAW-Dual [2]; [5],0.633
CC(C)=CCC[C@@H](C)CCO (library stock concentration (final ~1000-fold dilution): 10 mM),IRF Lucia reporter activity,RAW-Dual [1]; [4],1.18
same,IRF Lucia reporter activity,RAW-Dual [1]; agonist: LPS (TLR4) 0.1 ug/mL,1.1
CCC(Nc1ncnc2[nH]cnc12)c1nc2cccc(F)c2c(=O)n1-c1ccccc1 (stereo unspecified),IRF Lucia reporter activity,RAW-Dual [2]; [5],1.08
CCC(Nc1ncnc2[nH]cnc12)c1nc2cccc(F)c2c(=O)n1-c1ccccc1 (stereo unspecified) (library stock concentration (final ~1000-fold dilution): 10 mM),IRF Lucia reporter activity,RAW-Dual [1]; [4],0.775
same,IRF Lucia reporter activity,RAW-Dual [1]; agonist: LPS (TLR4) 0.1 ug/mL,0.921
COc1ccc(C2CNC(=O)C2)cc1OC1CCCC1 (stereo unspecified) (library stock concentration (final ~1000-fold dilution): 10 mM),IRF Lucia reporter activity,RAW-Dual [1]; [4],1.03
same,IRF Lucia reporter activity,RAW-Dual [1]; agonist: LPS (TLR4) 0.1 ug/mL,0.987
COc1ccc(C2CNC(=O)C2)cc1OC1CCCC1 (stereo unspecified),IRF Lucia reporter activity,RAW-Dual [2]; [5],0.784
O=c1c(O)c(-c2ccc(O)cc2O)oc2cc(O)cc(O)c12 (library stock concentration (final ~1000-fold dilution): 10 mM),IRF Lucia reporter activity,RAW-Dual [1]; [4],0.43
same,IRF Lucia reporter activity,RAW-Dual [1]; agonist: LPS (TLR4) 0.1 ug/mL,0.626
